Test results as given in article PMC7819943, “Rice protein-binding microarrays: a tool to detect cis-acting elements near promoter regions in rice”.
Some of the results follow.

Target: T1, OsWOX13 (Oryza sativa, UniProt Q5QMM3 1-267)
T1 sequence: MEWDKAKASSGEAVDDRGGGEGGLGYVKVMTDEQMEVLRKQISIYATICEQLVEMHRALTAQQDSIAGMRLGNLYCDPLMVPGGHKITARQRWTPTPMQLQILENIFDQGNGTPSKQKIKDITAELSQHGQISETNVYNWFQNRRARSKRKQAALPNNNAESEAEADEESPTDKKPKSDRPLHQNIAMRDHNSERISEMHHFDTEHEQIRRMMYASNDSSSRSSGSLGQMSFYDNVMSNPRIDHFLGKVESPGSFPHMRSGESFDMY
Assay: protein-binding microarray (RPBM); PBS, 2% BSA, 51.3 ng/ul salmon testes DNA, 50 uM zinc acetate, 200 nM TF, 25 C, 1 h; high values mean tight binding
Conditions: protein: recombinant; tags: N-terminal polyhistidine and DsRed monomer fusion (pET32a); label: CyDye5-dUTP incorporated in the synthesized complementary strand; 3' TTTTT single-stranded linker to array surface; dsDNA, one strand shown
Outline: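 The binding signal is fluorescence intensity per array feature (arbitrary units). Readings came from an Axon 4000B scanner after a washed, 2% BSA-blocked, double-stranded custom Agilent array had been incubated for 1 h at 25 °C with 200 nM protein and 50 µM zinc acetate. The protein was a Ni–NTA-purified transcription factor fused N-terminally to polyhistidine and DsRed, expressed in E. coli BL21-CodonPlus.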

Sequence	binding signal
GCTTATTGATAAATGTTTAGTCTCACAACTGTATGCTAACCGGAGTCACCTAGTGCAG	19800 fluorescence intensity (a.u.)
GTGTAACAGGGAAAATCATTACGTTTCGTTCGTCTACAGTCGGAGTCACCTAGTGCAG	7450 fluorescence intensity (a.u.)
TGTAACTGACAGCCTGTTTGTCGAATTATTTAAGGCTCGTCGGAGTCACCTAGTGCAG	25400 fluorescence intensity (a.u.)
AGCATTCTCTTAATTTAATACTAAAGTAAACTTATGCATACGGAGTCACCTAGTGCAG	3340 fluorescence intensity (a.u.)
ACCTTATTGATCGTCCATGTTTTCCGGTGAATTAAACCCACGGAGTCACCTAGTGCAG	7570 fluorescence intensity (a.u.)
CAAATTGGAAAGTGTTAATGGACGTAGTAAAGGCGATGCACGGAGTCACCTAGTGCAG	15700 fluorescence intensity (a.u.)
AAACTAATTACATAGATTGCAACTAATTTGCGAGACGAATCGGAGTCACCTAGTGCAG	35700 fluorescence intensity (a.u.)
TGTCAAAATGATTTAGTAGTTCCCAACACAGTACAAGTTGCGGAGTCACCTAGTGCAG	3500 fluorescence intensity (a.u.)
TTATTTCTTAATTGTATTTCTATATGGACTCTATACTCTACGGAGTCACCTAGTGCAG	4030 fluorescence intensity (a.u.)
ATAACCATCTAATTTTATGATGATAGTTTGGTTCGTTAAACGGAGTCACCTAGTGCAG	3450 fluorescence intensity (a.u.)
CTTTATTACCAATCAAAATAGACACCTTACCTACTTTCATCGGAGTCACCTAGTGCAG	11300 fluorescence intensity (a.u.)
ATATATAGCACTAATAATTGCCCAATTTACGATGGTGTAACGGAGTCACCTAGTGCAG	4050 fluorescence intensity (a.u.)
ATGTATGAGTATTAATTAATTTGTTTTGCGGAGACCATCTCGGAGTCACCTAGTGCAG	22400 fluorescence intensity (a.u.)
CAAGCTAAATTAATTAGAAACCTAATTGGCAAAATGAAGCCGGAGTCACCTAGTGCAG	42400 fluorescence intensity (a.u.)
TATCCAATCAAATTTTCACAGTGAATTTTACCGTAGCTAACGGAGTCACCTAGTGCAG	13000 fluorescence intensity (a.u.)
CTGACGCTCTAAATTAAGACTGATGAAAGGTGGCCGTCGTCGGAGTCACCTAGTGCAG	4760 fluorescence intensity (a.u.)
CACCAAAGTCAATCAAATAAATACTCATCATCCATTCCGTCGGAGTCACCTAGTGCAG	10100 fluorescence intensity (a.u.)
CATCATTGTACTGTTAATTAAATCATCATGGTCATTATCACGGAGTCACCTAGTGCAG	5140 fluorescence intensity (a.u.)
AGTGCTGATGGGGAAATTTAGCTAATAGGAATAAGCTACACGGAGTCACCTAGTGCAG	9410 fluorescence intensity (a.u.)
GTTTGATTTATATCTGATCGTCCGAAATGGGTTTATAGTGCGGAGTCACCTAGTGCAG	38600 fluorescence intensity (a.u.)
TTGTAATTTCGTATAGCCCAAAATGCCCCTGTCTCCACCTCGGAGTCACCTAGTGCAG	3500 fluorescence intensity (a.u.)

Sequence	binding signal
TCTAGAAATAACACGTGGTGATTAATATGGTTGTTTGAACCGGAGTCACCTAGTGCAG	3590 fluorescence intensity (a.u.)
ACACTAACAGTATATCATTAGTTAGTGGCTAACGATGCAACGGAGTCACCTAGTGCAG	4770 fluorescence intensity (a.u.)
TTATATTAGACTGAAATCGTCTTATATCCGTGTGCATGGGCGGAGTCACCTAGTGCAG	8100 fluorescence intensity (a.u.)
CTAGATTTATTAATGAGACTTCTATTATCAGTACAAAACACGGAGTCACCTAGTGCAG	24300 fluorescence intensity (a.u.)
AACTTGTGATTGACTCCTCAAGCACCTTTGGCATGGCCATCGGAGTCACCTAGTGCAG	41200 fluorescence intensity (a.u.)
CGAAATTGGATGAAATGGCAATGTGGCAAGATGGTGACGTCGGAGTCACCTAGTGCAG	18700 fluorescence intensity (a.u.)
ATGTACTATATTGCAAATCATCAATGATGGATCCAAGGTGCGGAGTCACCTAGTGCAG	7490 fluorescence intensity (a.u.)
CCTAAACAGCACCCTGATTCTTCCATTAGATTGCTCCAATCGGAGTCACCTAGTGCAG	10000 fluorescence intensity (a.u.)
GGATTATGACGTTGCTAATTATGCGCCGTTGCTTTCATCCCGGAGTCACCTAGTGCAG	7750 fluorescence intensity (a.u.)
AATAAAATTATCACAAAATTATTGATTTTAAGGTTTAAATCGGAGTCACCTAGTGCAG	10100 fluorescence intensity (a.u.)
TTACTGGGAGAAATTTAATTAGCTGGATTCATATCACAGTCGGAGTCACCTAGTGCAG	4070 fluorescence intensity (a.u.)
TATTATTATTAATTATTAATAATAATCGGATAAAGTAACCCGGAGTCACCTAGTGCAG	16600 fluorescence intensity (a.u.)
GCCAACAATTAATCAAGTAGTACACTCACATGAGTCCTTGCGGAGTCACCTAGTGCAG	8250 fluorescence intensity (a.u.)
TACTGGTTGATTGTACACTTTGTCCTTGGATTTTACGGACCGGAGTCACCTAGTGCAG	11300 fluorescence intensity (a.u.)
TCAAACAGAGCCAATCAGCCAAGCTTGCTAGTACCATCTACGGAGTCACCTAGTGCAG	13300 fluorescence intensity (a.u.)
AATTGCCAAAATTTTGACAGAATTTCTTATGTATTGACTACGGAGTCACCTAGTGCAG	4100 fluorescence intensity (a.u.)
AAAATAAATTAATAATAATATGATTAAAATAGCCTTCACTCGGAGTCACCTAGTGCAG	14300 fluorescence intensity (a.u.)
TGTGCAATCAGATCGTAGATTAGATAAATAGTTTACGAGACGGAGTCACCTAGTGCAG	14000 fluorescence intensity (a.u.)
ACTGTTTCCTTTAATTTGACTCTGTCACAGTTGAGTTCTACGGAGTCACCTAGTGCAG	4770 fluorescence intensity (a.u.)
ATTCACGTTGGATTTGATTTTGTGCGTTAAATCAAAGTAGCGGAGTCACCTAGTGCAG	4430 fluorescence intensity (a.u.)
TTGATATAATAGAGAATTTTACCAAGAAATTAAAGCATCCCGGAGTCACCTAGTGCAG	5220 fluorescence intensity (a.u.)

Sequence	binding signal
ATAAATATGACTGACATGTGGGTCCCCACTGACACGTAGGCGGAGTCACCTAGTGCAG	15300 fluorescence intensity (a.u.)
CTTAATTATATATTTACCTACTTCTCCTCATGCATGAATCCGGAGTCACCTAGTGCAG	39100 fluorescence intensity (a.u.)
TCCAGCACCAATCAATAAATTGGTTTCAATACACTTTCCCCGGAGTCACCTAGTGCAG	15400 fluorescence intensity (a.u.)
TTTTAATTCTGAATTTTAACTATTTCTAAATTGTATTTCTCGGAGTCACCTAGTGCAG	4370 fluorescence intensity (a.u.)
TTGATTGGGAGGAAGCCAAGAAGAAGTCAAGAACTGCCCACGGAGTCACCTAGTGCAG	31900 fluorescence intensity (a.u.)
TGCCCTGTTACGGTTGACAGCTAATTACCTTGATTCGTTTCGGAGTCACCTAGTGCAG	11000 fluorescence intensity (a.u.)
TACAAATAAACAGAGGTTCAGTCACCAACAAATAATTGTGCGGAGTCACCTAGTGCAG	10600 fluorescence intensity (a.u.)
TGCTTATGTGATTATATCAAGGGAGGATTAGGGTTATAATCGGAGTCACCTAGTGCAG	7950 fluorescence intensity (a.u.)
GTTTTATTCAGAGAAAATTAATTAGATGTTACAGTGCAGTCGGAGTCACCTAGTGCAG	5210 fluorescence intensity (a.u.)
TTTGACAGGAGGTGTTACTGAAACCCCGTGCCCATACAAACGGAGTCACCTAGTGCAG	6840 fluorescence intensity (a.u.)
ACAAACTAATTATAATCAATATGAAGCAACCAATAATGGACGGAGTCACCTAGTGCAG	49200 fluorescence intensity (a.u.)
TTTTATAATTATATAGCACACCCCACTTCACACGCATATCCGGAGTCACCTAGTGCAG	15300 fluorescence intensity (a.u.)
CAATGATTAGCAAATTAACTATTGCCTTAACAACATTAATCGGAGTCACCTAGTGCAG	23300 fluorescence intensity (a.u.)
ATGATTTGACAATGTGGTGCTACAAACCTACAGTAAACATCGGAGTCACCTAGTGCAG	22700 fluorescence intensity (a.u.)
GAGACGAATCTTTTAAGCCTAATTAGTCCGTGATTAGCCACGGAGTCACCTAGTGCAG	8940 fluorescence intensity (a.u.)
AACAATAGACAATTGGATAATGGTTTTACCGTTGTAGTTACGGAGTCACCTAGTGCAG	6620 fluorescence intensity (a.u.)
GTTTTGTTTATTCTGATTACAGGATGTTCCTGACCTGGCCCGGAGTCACCTAGTGCAG	4620 fluorescence intensity (a.u.)
ACCATCAATCAATGGAGACAAACCTCTGCACCTCCTCCAACGGAGTCACCTAGTGCAG	18400 fluorescence intensity (a.u.)
TAATCATGATTTATATCTTATACATTTGTATACAAGTTTTCGGAGTCACCTAGTGCAG	5920 fluorescence intensity (a.u.)
CTGATTAAGTTAATAGCGTGTCACAAATGAGAACCTAGGTCGGAGTCACCTAGTGCAG	27900 fluorescence intensity (a.u.)
AAATAATTAAAATTATTAAAACAATGCATAACTTTTAAGCCGGAGTCACCTAGTGCAG	21200 fluorescence intensity (a.u.)

Sequence	binding signal
CTTCGATTGATCCGATCTCTCGTCTCGTCTCGTCCTCCCCCGGAGTCACCTAGTGCAG	17800 fluorescence intensity (a.u.)
GCACTAGTGATTGGAACAATATTAATTTCAGAAACATTGCCGGAGTCACCTAGTGCAG	32700 fluorescence intensity (a.u.)
AATGACAGGTTCTTGAGCTAACCAGATCACATTGTCTTTGCGGAGTCACCTAGTGCAG	6500 fluorescence intensity (a.u.)
CCAGGTGATTAATACCATATCATGAGTTGGCAATGCTGAACGGAGTCACCTAGTGCAG	22500 fluorescence intensity (a.u.)
AATAATTGGTTATAGCTTGTTGAGCAAAGGCCGAAATATTCGGAGTCACCTAGTGCAG	25900 fluorescence intensity (a.u.)
TGCCATCTAATGCCCTTGATTGAATTAATCATAGAGTCACCGGAGTCACCTAGTGCAG	41100 fluorescence intensity (a.u.)
TATTTAAATTATGGTGTTATAATATATGAATAAACAGTTTCGGAGTCACCTAGTGCAG	10200 fluorescence intensity (a.u.)
GATATGATGGGTACAAACTGTTATAAACTAACATGTCTATCGGAGTCACCTAGTGCAG	5970 fluorescence intensity (a.u.)
ACGGGTTAATTTTCAGGATCAGGCTTGACAAGTCTAGCATCGGAGTCACCTAGTGCAG	5380 fluorescence intensity (a.u.)
CGAGAATGGCTAAATGTCAATTTTCTCATGCTAGAGAGCCCGGAGTCACCTAGTGCAG	5140 fluorescence intensity (a.u.)
GCAGCCTACGTGACTTGATTATTAACGAGAATCCTGTGTCCGGAGTCACCTAGTGCAG	4190 fluorescence intensity (a.u.)
CAATAAATTTTAACTAGTGAACCTTTATCGGGTTACCACCCGGAGTCACCTAGTGCAG	5680 fluorescence intensity (a.u.)
CCGAGATTAATCGATTACTATTGGGTATGTGGTATCCATACGGAGTCACCTAGTGCAG	11400 fluorescence intensity (a.u.)
CAAAACCTGCACCTGATTGAACTACTCAATGAGGCTGTATCGGAGTCACCTAGTGCAG	21400 fluorescence intensity (a.u.)
AAAGGCAAATTTTGCCGATGATTGTTTGCTTATGCATCGCCGGAGTCACCTAGTGCAG	12000 fluorescence intensity (a.u.)
TTCTCCCATTTAATTACATAAGTTGGGTTTGAAGTAGAGTCGGAGTCACCTAGTGCAG	4940 fluorescence intensity (a.u.)
GTAGGTTGATTTTATGATTTGCGTTACATACATCCTTATTCGGAGTCACCTAGTGCAG	4570 fluorescence intensity (a.u.)
GGTGTGGTGGTGGTGGGGATGAGGAGCGCGATTGGGAGAGCGGAGTCACCTAGTGCAG	3190 fluorescence intensity (a.u.)
ATCTATAATTAGAGAATGTTTACTGTAGCATCACATAGGCCGGAGTCACCTAGTGCAG	24400 fluorescence intensity (a.u.)
TTCTTGTTAGCAACAAATTGACATATTGCTCGGCACATCCCGGAGTCACCTAGTGCAG	12900 fluorescence intensity (a.u.)
TTTAATATTTAATTAATCATGCGTTAGTACCTATTTAGGTCGGAGTCACCTAGTGCAG	14400 fluorescence intensity (a.u.)
